# In a collection of fitness landscapes (doi:10.1038/s41467-024-54723-y):
# Whole data set: some 18,000 sequences, median “TetR repression strength (sort-seq, GFP reporter)” near 0.23, cut for the highest 2% near 0.68. Some of the results follow.
# Target: TetR (class B, Tn10) (UniProt P04483)
# Assay: TetR repression strength (sort-seq, GFP reporter) (relative to tetO2 = 1); higher = stronger repression
# Conditions: E. coli
# Summary of the method: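 Repression strength was calculated by subtracting the read-weighted mean bin from the top bin index plus one and dividing by the unaltered operator's value. The plasmid library was low-copy in E. coli SIG10-MAX, with eight randomized operator positions between a constitutive promoter and sfGFP and constitutive TetR. Cultures grew 5 h at 37 °C in LB containing 50 µg/mL chloramphenicol before 10^6 cells were sorted by FACS into 13 fluorescence bins, each sequenced on Illumina. Three independent transformations were averaged for members having ≥30 reads in all replicates and a CV ≤0.5.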
# UniProt P04483, sequence (P04483 whole entry): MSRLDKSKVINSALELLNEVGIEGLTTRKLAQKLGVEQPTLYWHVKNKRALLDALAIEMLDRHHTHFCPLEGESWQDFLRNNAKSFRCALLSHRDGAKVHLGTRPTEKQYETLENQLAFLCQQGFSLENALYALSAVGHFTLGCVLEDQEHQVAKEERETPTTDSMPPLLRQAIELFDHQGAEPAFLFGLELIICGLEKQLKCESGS
row,Sequence,TetR repression strength
1,TCCCTCTTAGTGACGGAGA,0.207
2,TCCCAGATAGTGGGTGAGA,0.211
3,TCCCGCATAGTCTAGGAGA,0.308
4,TCCCGTCGAGTCCTCGAGA,0.0322
5,TCCCCCTCAGTATAGGAGA,0.214
6,TCCCTAACAGTCTCCGAGA,0.331
7,TCCCCGTAAGTTGGCGAGA,0.00451
8,TCCCTTCTAGTCGTTGAGA,0.416
9,TCCCGTATAGTTGATGAGA,0.103
10,TCCCGTACAGTTGTCGAGA,0.342
11,TCCCCTTAAGTAGCGGAGA,0.138
12,TCCCATCAAGTTCTGGAGA,0.363
13,TCCCTTGCAGTGTTGGAGA,0.258
14,TCCCACGGAGTTACCGAGA,0.302
15,TCCCCTGAAGTAGGTGAGA,0.158
16,TCCCTGATAGTTGCGGAGA,0.06
17,TCCCGATAAGTGTGGGAGA,0.0255
18,TCCCAGCGAGTATAGGAGA,0.333
19,TCCCATGCAGTACGTGAGA,0.259
20,TCCCAGGAAGTTGGGGAGA,0.233
21,TCCCGCGAAGTAGCAGAGA,0.114
22,TCCCTTCAAGTGCCGGAGA,1.13
23,TCCCTTTAAGTACCTGAGA,0.523
24,TCCCGCGTAGTAAAGGAGA,0.304
25,TCCCTAAGAGTAAAAGAGA,0.839
26,TCCCCGACAGTGATGGAGA,0.108

row,Sequence,TetR repression strength
1,TCCCATCCAGTTGAGGAGA,0.266
2,TCCCGTGCAGTAATCGAGA,0.749
3,TCCCGCACAGTAAGCGAGA,0.108
4,TCCCGCGAAGTCGCGGAGA,0.138
5,TCCCCAGAAGTACAGGAGA,0.134
6,TCCCCTTGAGTGCGAGAGA,0.282
7,TCCCGGGGAGTCTGTGAGA,0.275
8,TCCCAAGGAGTGAGGGAGA,0.12
9,TCCCATCTAGTGGGTGAGA,0.262
10,TCCCGGTAAGTGAAAGAGA,0.684
11,TCCCACGGAGTCAATGAGA,0.309
12,TCCCCACAAGTGTCAGAGA,0.352
13,TCCCGGCCAGTTGCGGAGA,0.268
14,TCCCGCCTAGTAGAGGAGA,0.25
15,TCCCGTGTAGTAAGGGAGA,0.307
16,TCCCTTCTAGTGTTGGAGA,0.397
17,TCCCGAGGAGTTGGAGAGA,0.14
18,TCCCACGCAGTGGTAGAGA,0.153
19,TCCCTCTCAGTTACTGAGA,0.703
20,TCCCGGCGAGTTACGGAGA,0.399
21,TCCCTGAAAGTTGGGGAGA,0.0848
22,TCCCCGTCAGTCGGCGAGA,0.317
23,TCCCAGTCAGTATCGGAGA,0.078
24,TCCCTGCCAGTTTGAGAGA,0.129
25,TCCCGATCAGTACGGGAGA,0.0578
26,TCCCCAGCAGTTTCCGAGA,0.275

row,Sequence,TetR repression strength
1,TCCCGCGCAGTATCTGAGA,0.195
2,TCCCAATTAGTCTGTGAGA,0.245
3,TCCCGCGAAGTGTACGAGA,0.183
4,TCCCGGACAGTCCGTGAGA,0.196
5,TCCCGGTGAGTTGCGGAGA,0.138
6,TCCCACAGAGTGCTAGAGA,0.218
7,TCCCACGGAGTCCGGGAGA,0.0173
8,TCCCGATGAGTGTTCGAGA,0.28
9,TCCCCTGAAGTCGACGAGA,0.179
10,TCCCCGTCAGTGATAGAGA,0.35
11,TCCCTTCTAGTGGGTGAGA,0.431
12,TCCCCCAGAGTACAAGAGA,0.378
13,TCCCCGTTAGTTAGGGAGA,0.144
14,TCCCCGTAAGTTCCTGAGA,0.231
15,TCCCTATGAGTAAAAGAGA,0.24
16,TCCCATCGAGTCGTCGAGA,0.578
17,TCCCATGCAGTTCATGAGA,0.216
18,TCCCAGGGAGTGCTTGAGA,0.258
19,TCCCGAATAGTTTTGGAGA,0.327
20,TCCCGTCGAGTTGCAGAGA,0.368
21,TCCCGGCAAGTTGCAGAGA,0.115
22,TCCCCTTAAGTGGGCGAGA,0.0367
23,TCCCTCGCAGTTTTCGAGA,0.322
24,TCCCGGCCAGTGAATGAGA,0.507
25,TCCCGGTGAGTGGGTGAGA,0.459
26,TCCCTTATAGTGGGGGAGA,0.161

row,Sequence,TetR repression strength
1,TCCCCGGGAGTAGGAGAGA,0.448
2,TCCCACGAAGTGGGCGAGA,0.104
3,TCCCCAGGAGTAATTGAGA,0.0981
4,TCCCGCGGAGTGTCTGAGA,0.322
5,TCCCTTAAAGTTGCAGAGA,0
6,TCCCCTCTAGTGTTAGAGA,0.0774
7,TCCCTCTAAGTCGGGGAGA,0.415
8,TCCCTGCAAGTAGGTGAGA,0.0583
9,TCCCGGTCAGTCCTCGAGA,0.15
10,TCCCGCTAAGTCATCGAGA,0.167
11,TCCCTCGTAGTGAACGAGA,0.226
12,TCCCGGGCAGTGTGAGAGA,0.386
13,TCCCAACCAGTTGCTGAGA,0.198
14,TCCCCGGGAGTCGCTGAGA,0.406
15,TCCCGGTGAGTAGGCGAGA,0.0704
16,TCCCCGGGAGTGTAAGAGA,0.213
17,TCCCTGACAGTGAAAGAGA,0.0543
18,TCCCGCCTAGTTCGTGAGA,0.0765
19,TCCCTCAAAGTGTACGAGA,0.165
20,TCCCTTCGAGTAGCCGAGA,0.623
21,TCCCTACTAGTTGGAGAGA,0.196
22,TCCCGTCAAGTGGCTGAGA,0.13
23,TCCCGTGGAGTGACAGAGA,0.221
24,TCCCGAGTAGTTCTGGAGA,0.266
25,TCCCAGGGAGTTGGTGAGA,0.0385
26,TCCCACGGAGTCGGGGAGA,0.23

row,Sequence,TetR repression strength
1,TCCCTAATAGTCCCTGAGA,0.387
2,TCCCTCATAGTGGTTGAGA,0.177
3,TCCCCAGTAGTGCTGGAGA,0.0383
4,TCCCGATCAGTGGGTGAGA,0.395
5,TCCCGTTTAGTCGGTGAGA,0.101
6,TCCCGGTTAGTACAAGAGA,0.214
7,TCCCGTTGAGTTCTGGAGA,0.207
8,TCCCGGCCAGTGTCTGAGA,0.204
9,TCCCCGACAGTCTGTGAGA,0.284
10,TCCCATCGAGTAAGAGAGA,0.347
11,TCCCAGGGAGTACTAGAGA,0.414
12,TCCCTCATAGTCATTGAGA,0.257
13,TCCCGTGCAGTAGAGGAGA,0.206
14,TCCCTGGGAGTAGATGAGA,0.203
15,TCCCGAACAGTGGCAGAGA,0.236
16,TCCCGTTAAGTGGTAGAGA,0
17,TCCCGTTAAGTCACTGAGA,0.161
18,TCCCCAACAGTGGAAGAGA,0.191
19,TCCCCAGTAGTCCCTGAGA,0.945
20,TCCCCACGAGTGATTGAGA,0.314
21,TCCCTGGAAGTTAGTGAGA,0.146
22,TCCCCGATAGTCGGGGAGA,0.0848
23,TCCCCTTGAGTTGCTGAGA,0.383
24,TCCCGTTCAGTGTGTGAGA,0.354
25,TCCCGGGGAGTGAAGGAGA,0.211
26,TCCCTTTCAGTTTCGGAGA,0.422

row,Sequence,TetR repression strength
1,TCCCGTAGAGTGAGGGAGA,0.229
2,TCCCTACAAGTGTTGGAGA,0.118
3,TCCCTGAGAGTGCGGGAGA,0.309
4,TCCCTAGAAGTATGCGAGA,0.171
5,TCCCACATAGTTACAGAGA,0.109
6,TCCCTAATAGTTGTTGAGA,0.207
7,TCCCGCGCAGTCGATGAGA,0
8,TCCCGGTCAGTGGCTGAGA,0.659
9,TCCCTTTTAGTTGAGGAGA,0.327
10,TCCCTGCTAGTACAAGAGA,0.353
11,TCCCAAGAAGTATAGGAGA,0.262
12,TCCCAGTGAGTTAGGGAGA,0.144
13,TCCCTGGCAGTGGGAGAGA,0.11
14,TCCCGTAGAGTCGATGAGA,0.715
15,TCCCTTGTAGTCACCGAGA,0.257
16,TCCCAGAAAGTCGGCGAGA,0.173
17,TCCCTCCGAGTTATGGAGA,0.194
18,TCCCACGGAGTCGAAGAGA,0.187
19,TCCCAGGAAGTCATGGAGA,0.408
20,TCCCGTGCAGTCGGCGAGA,0.0546
21,TCCCGGCCAGTGCAAGAGA,0.214
22,TCCCCGAGAGTATTGGAGA,0.201
23,TCCCACAAAGTTGGAGAGA,0.358
24,TCCCCCGAAGTGGTAGAGA,0.382
25,TCCCAGGTAGTGGGCGAGA,0.186
26,TCCCGCGTAGTTGCAGAGA,0.0504

row,Sequence,TetR repression strength
1,TCCCGCTCAGTGCGGGAGA,0.226
2,TCCCTGTAAGTCAGTGAGA,0.131
3,TCCCAGATAGTCAACGAGA,0.324
4,TCCCTGTCAGTTCCTGAGA,0.36
5,TCCCTTATAGTGCGGGAGA,0
6,TCCCCAGCAGTGATGGAGA,0.2
7,TCCCAGGTAGTTGCCGAGA,0.111
8,TCCCCTGAAGTTCTTGAGA,0.223
9,TCCCTACTAGTGCCTGAGA,0.274
10,TCCCACGGAGTACGGGAGA,0.34
11,TCCCGGCTAGTGGACGAGA,0.182
12,TCCCGTTCAGTGTGAGAGA,0.246
13,TCCCGCAGAGTTGGGGAGA,0.39
14,TCCCGCCGAGTTGAAGAGA,0.254
15,TCCCTGTGAGTGAAGGAGA,0.3
16,TCCCTCCAAGTGTCGGAGA,0.39
17,TCCCGGACAGTGTGGGAGA,0.148
18,TCCCGGGCAGTACCCGAGA,0.106
19,TCCCGCGTAGTCGCAGAGA,0.138
20,TCCCGATAAGTTCACGAGA,0.415
21,TCCCCGGCAGTAGTGGAGA,0.131
22,TCCCAGGCAGTTTAGGAGA,0.14
23,TCCCTTACAGTTGAGGAGA,0.074
24,TCCCGGTGAGTTGGGGAGA,0.28
25,TCCCATATAGTTGGAGAGA,0.0713
26,TCCCGCTCAGTCAAGGAGA,0.351

row,Sequence,TetR repression strength
1,TCCCTGTCAGTTCAGGAGA,0.0968
2,TCCCCTGAAGTAGCTGAGA,0.365
3,TCCCAGGTAGTAGCCGAGA,0.295
4,TCCCTGCCAGTCTGCGAGA,0.24
5,TCCCGAGTAGTAGCAGAGA,0.253
6,TCCCGCGGAGTTGTCGAGA,0.221
7,TCCCCGTCAGTGACTGAGA,0.237
8,TCCCCTGCAGTCGATGAGA,0.223
9,TCCCATAAAGTTTCAGAGA,0.323
10,TCCCGTCCAGTAGACGAGA,0.27
11,TCCCAAAGAGTCGTAGAGA,0.191
12,TCCCCGCAAGTAAAGGAGA,0.207
13,TCCCATTGAGTACGTGAGA,0.12
14,TCCCTGGAAGTGTGGGAGA,0.143
15,TCCCAGGGAGTAACCGAGA,0.202
16,TCCCCGGAAGTATATGAGA,0.0317
17,TCCCCAGGAGTCAGTGAGA,0.296
18,TCCCGAGTAGTGGACGAGA,0.302
19,TCCCGTACAGTAAGAGAGA,0.36
20,TCCCATGAAGTTGTTGAGA,0.268
21,TCCCGCCCAGTGGGAGAGA,0.119
22,TCCCGGGGAGTACCAGAGA,0.117
